The supplement of paper PMC4967469
A lower IC50 marks a more sensitive line; a limit (>, <) means that the fit lies beyond the doses tested. AUC, from the same fit, is the share of area under the viability curve across the 256-fold dose range: 1 means no effect, lower means more sensitive. Any top dose called inferred is not printed in the source and was worked back from the curve model.

Columns and labels:
Assay in all cases: Viability of human cancer cell lines after 72 h of drug (GDSC screen)
QL-XI-92 = compound: C=CC(=O)Nc1cc(NC(=O)c2ccc(C)c(NC(=O)c3ccno3)c2)cc(C(F)(F)F)c1 [QL-XI-92]; settings: top dose 10.24 µM; top dose inferred
Experimental: (§1)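 Human cancer cell lines in 384-well plates, medium with 10% serum, drug for 72 h over a 256-fold dose range (nine 2-fold or five 4-fold steps up to the top dose). Adherent lines were fixed and stained with the nucleic acid dye Syto60, suspension lines read with resazurin; signal relative to control wells, capped at 0 and 100%. One two-parameter sigmoid per drug and line, fitted in a mixed model over all curves with the slope shared within a line.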

Phenformin = compound: N=C(N)NC(=N)NCCc1ccccc1 [Phenformin]; settings: top dose 4000 µM; top dose inferred
Experimental: as §1

XL-184 = compound: COc1cc2nccc(Oc3ccc(NC(=O)C4(C(=O)Nc5ccc(F)cc5)CC4)cc3)c2cc1OC [XL-184]; settings: top dose 5.12 µM; top dose inferred
Experimental: as §1

Vinorelbine = compound: CCC1=C[C@@H]2CN(C1)Cc1c([nH]c3ccccc13)[C@@](C(=O)OC)(c1cc3c(cc1OC)N(C)[C@H]1[C@@](O)(C(=O)OC)[C@H](OC(C)=O)[C@]4(CC)C=CCN5CC[C@]31[C@@H]54)C2 [Vinorelbine]; settings: top dose 0.064 µM; top dose inferred
Experimental: as §1

WHI-P97 = compound: COc1cc2ncnc(Nc3cc(Br)c(O)c(Br)c3)c2cc1OC [WHI-P97]; settings: top dose 10.24 µM; top dose inferred
Experimental: as §1

EHT 1864 = compound: O=c1cc(CN2CCOCC2)occ1OCCCCCSc1ccnc2cc(C(F)(F)F)ccc12 [EHT 1864]; settings: top dose 10 µM; top dose inferred
Experimental: as §1

AG-014699 = compound: CNCc1ccc(-c2[nH]c3cc(F)cc4c3c2CCNC4=O)cc1 [AG-014699]; settings: top dose 5 µM; top dose inferred
Experimental: as §1

Row | Cell Line | AUC (QL-XI-92) | IC50 (QL-XI-92) | AUC (Phenformin) | IC50 (Phenformin) | AUC (XL-184) | IC50 (XL-184) | AUC (Vinorelbine) | IC50 (Vinorelbine) | AUC (WHI-P97) | IC50 (WHI-P97) | AUC (EHT 1864) | IC50 (EHT 1864) | AUC (AG-014699) | IC50 (AG-014699)
1 | 769-P (kidney, adherent) | 0.9 | > 10.2 µM | 0.741 | 1320 µM | 0.964 | > 5.12 µM | 0.724 | 0.0185 µM | 0.787 | 4.88 µM | 0.904 | > 10 µM | – | –
2 | A204 (rhabdomyosarcoma, adherent) | 0.888 | > 10.2 µM | 0.937 | > 4000 µM | 0.505 | 0.331 µM | 0.507 | 0.00421 µM | 0.958 | > 10.2 µM | 0.945 | > 10 µM | 0.887 | > 5 µM
3 | BEN (non-small cell lung carcinoma, adherent) | 0.979 | > 10.2 µM | 0.742 | 1390 µM | 0.966 | > 5.12 µM | 0.765 | 0.0267 µM | 0.986 | > 10.2 µM | 0.868 | > 10 µM | 0.931 | > 5 µM
4 | BFTC-909 (kidney, adherent) | 0.987 | > 10.2 µM | 0.881 | > 4000 µM | 0.975 | > 5.12 µM | 0.695 | 0.0139 µM | 0.975 | > 10.2 µM | 0.926 | > 10 µM | 0.959 | > 5 µM
5 | BICR31 (head and neck, adherent) | 0.988 | > 10.2 µM | 0.94 | > 4000 µM | 0.927 | > 5.12 µM | 0.554 | 0.00563 µM | 0.916 | > 10.2 µM | – | – | – | –
6 | CAKI-1 (kidney, adherent) | 0.941 | > 10.2 µM | 0.788 | 2820 µM | – | – | 0.953 | > 0.064 µM | 0.914 | > 10.2 µM | 0.963 | > 10 µM | 0.905 | > 5 µM
7 | CAMA-1 (breast, adherent) | 0.955 | > 10.2 µM | 0.61 | 544 µM | 0.951 | > 5.12 µM | 0.655 | 0.012 µM | 0.979 | > 10.2 µM | 0.92 | > 10 µM | 0.977 | > 5 µM
8 | COLO-792 (melanoma, adherent) | 0.917 | > 10.2 µM | – | – | 0.979 | > 5.12 µM | 0.919 | > 0.064 µM | 0.981 | > 10.2 µM | – | – | 0.988 | > 5 µM
9 | COR-L105 (lung adenocarcinoma, adherent) | 0.876 | > 10.2 µM | 0.59 | 467 µM | 0.874 | > 5.12 µM | 0.744 | 0.0238 µM | 0.664 | 2.04 µM | 0.908 | > 10 µM | 0.923 | > 5 µM
10 | COR-L303 (small cell lung carcinoma, suspension) | 0.902 | > 10.2 µM | 0.954 | > 4000 µM | 0.985 | > 5.12 µM | – | – | 0.971 | > 10.2 µM | – | – | – | –
11 | COR-L311 (small cell lung carcinoma, suspension) | 0.799 | 5.31 µM | – | – | 0.937 | > 5.12 µM | – | – | 0.946 | > 10.2 µM | – | – | – | –
12 | Caov-3 (ovary, adherent) | 0.989 | > 10.2 µM | 0.622 | 518 µM | 0.924 | > 5.12 µM | 0.902 | > 0.064 µM | 0.946 | > 10.2 µM | – | – | – | –
13 | GCT (soft tissue, adherent) | 0.989 | > 10.2 µM | 0.968 | > 4000 µM | 0.988 | > 5.12 µM | 0.873 | 0.0544 µM | 0.989 | > 10.2 µM | 0.944 | > 10 µM | 0.894 | > 5 µM
14 | GP5d (large intestine, adherent) | 0.991 | > 10.2 µM | 0.709 | 901 µM | 0.933 | > 5.12 µM | 0.619 | 0.0082 µM | 0.917 | > 10.2 µM | 0.968 | > 10 µM | 0.988 | > 5 µM
15 | H2803 (mesothelioma, adherent) | 0.985 | > 10.2 µM | 0.985 | > 4000 µM | 0.863 | > 5.12 µM | 0.941 | > 0.064 µM | 0.983 | > 10.2 µM | 0.963 | > 10 µM | 0.97 | > 5 µM
16 | H2804 (mesothelioma, adherent) | 0.938 | > 10.2 µM | 0.976 | > 4000 µM | 0.934 | > 5.12 µM | 0.63 | 0.00948 µM | 0.976 | > 10.2 µM | 0.973 | > 10 µM | 0.917 | > 5 µM
17 | H2810 (mesothelioma, adherent) | – | – | – | – | – | – | – | – | – | – | 0.972 | > 10 µM | 0.922 | > 5 µM
18 | H2818 (mesothelioma, adherent) | 0.982 | > 10.2 µM | 0.932 | > 4000 µM | 0.989 | > 5.12 µM | 0.958 | > 0.064 µM | 0.989 | > 10.2 µM | 0.97 | > 10 µM | 0.971 | > 5 µM
19 | HO-1-N-1 (head and neck, adherent) | 0.984 | > 10.2 µM | 0.85 | 2660 µM | 0.98 | > 5.12 µM | 0.553 | 0.0055 µM | 0.977 | > 10.2 µM | 0.972 | > 10 µM | 0.958 | > 5 µM

Row | Cell Line | AUC (QL-XI-92) | IC50 (QL-XI-92) | AUC (Phenformin) | IC50 (Phenformin) | AUC (XL-184) | IC50 (XL-184) | AUC (Vinorelbine) | IC50 (Vinorelbine) | AUC (WHI-P97) | IC50 (WHI-P97) | AUC (EHT 1864) | IC50 (EHT 1864) | AUC (AG-014699) | IC50 (AG-014699)
20 | K-562 (chronic myeloid leukaemia, suspension) | 0.677 | 1.96 µM | 0.481 | 223 µM | 0.708 | 1.21 µM | – | – | 0.949 | > 10.2 µM | – | – | – | –
21 | KP-4 (pancreas, adherent) | 0.95 | > 10.2 µM | – | – | 0.941 | > 5.12 µM | 0.442 | 0.0028 µM | 0.985 | > 10.2 µM | 0.937 | > 10 µM | 0.934 | > 5 µM
22 | NCI-H1299 (large cell lung carcinoma, adherent) | 0.97 | > 10.2 µM | 0.626 | 603 µM | – | – | – | – | 0.96 | > 10.2 µM | 0.947 | > 10 µM | 0.936 | > 5 µM
23 | NCI-H1573 (lung adenocarcinoma, adherent) | 0.985 | > 10.2 µM | 0.962 | > 4000 µM | 0.985 | > 5.12 µM | – | – | 0.976 | > 10.2 µM | 0.959 | > 10 µM | 0.988 | > 5 µM
24 | NCI-H1650 (lung adenocarcinoma, adherent) | – | – | – | – | – | – | – | – | – | – | 0.969 | > 10 µM | 0.981 | > 5 µM
25 | NCI-H1793 (lung adenocarcinoma, adherent) | 0.978 | > 10.2 µM | 0.878 | > 4000 µM | 0.964 | > 5.12 µM | – | – | 0.964 | > 10.2 µM | 0.913 | > 10 µM | 0.96 | > 5 µM
26 | NCI-H1915 (large cell lung carcinoma, adherent) | 0.965 | > 10.2 µM | 0.83 | 2570 µM | 0.986 | > 5.12 µM | – | – | 0.982 | > 10.2 µM | 0.966 | > 10 µM | 0.926 | > 5 µM
27 | NCI-H2122 (lung adenocarcinoma, adherent) | 0.987 | > 10.2 µM | 0.87 | 3340 µM | 0.988 | > 5.12 µM | – | – | 0.981 | > 10.2 µM | 0.984 | > 10 µM | 0.989 | > 5 µM
28 | NCI-H2228 (lung adenocarcinoma, adherent) | 0.931 | > 10.2 µM | 0.694 | 1170 µM | 0.91 | > 5.12 µM | 0.564 | 0.00652 µM | 0.903 | > 10.2 µM | – | – | – | –
29 | SNU-175 (large intestine, suspension) | 0.98 | > 10.2 µM | 0.773 | 1460 µM | 0.899 | > 5.12 µM | – | – | 0.942 | > 10.2 µM | – | – | – | –
30 | SNU-398 (liver, adherent) | 0.935 | > 10.2 µM | 0.927 | > 4000 µM | 0.964 | > 5.12 µM | 0.389 | 0.00195 µM | 0.963 | > 10.2 µM | 0.955 | > 10 µM | – | –
31 | SNU-475 (liver, adherent) | 0.972 | > 10.2 µM | 0.99 | > 4000 µM | 0.898 | > 5.12 µM | 0.924 | > 0.064 µM | 0.99 | > 10.2 µM | – | – | – | –
32 | SNU-1040 (large intestine, adherent) | 0.917 | > 10.2 µM | 0.951 | > 4000 µM | 0.9 | > 5.12 µM | – | – | 0.809 | 7.71 µM | – | – | – | –
33 | SW1116 (large intestine, adherent) | 0.985 | > 10.2 µM | 0.986 | > 4000 µM | 0.982 | > 5.12 µM | – | – | 0.982 | > 10.2 µM | 0.981 | > 10 µM | 0.983 | > 5 µM
34 | U251 (glioma, adherent) | 0.852 | 7.34 µM | 0.58 | 409 µM | 0.842 | 3.34 µM | 0.605 | 0.00767 µM | 0.986 | > 10.2 µM | 0.926 | > 10 µM | – | –
35 | U-2-OS (osteosarcoma, adherent) | 0.976 | > 10.2 µM | – | – | 0.983 | > 5.12 µM | 0.985 | > 0.064 µM | 0.984 | > 10.2 µM | 0.94 | > 10 µM | 0.915 | > 5 µM
36 | UACC-812 (breast, adherent) | 0.99 | > 10.2 µM | 0.918 | > 4000 µM | 0.954 | > 5.12 µM | 0.99 | > 0.064 µM | 0.938 | > 10.2 µM | – | – | – | –
37 | YMB-1-E (breast, adherent) | 0.961 | > 10.2 µM | 0.808 | 3080 µM | 0.969 | > 5.12 µM | – | – | 0.977 | > 10.2 µM | – | – | – | –
